{"source": "PubChem BioAssay (Tox21)", "key": {"[1]": {"assay": "qHTS RealTime-Glo MT Cell Viability Assay in HEK293 cells - 8 hour (AID 1224887); also: nearly all actives have a fitted effect of over 50% in size", "procedure,_shortened": "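Measured as luminescence from the same continuously cultured HEK293 wells at successive time points (0, 8, 16, 24, 32, 40 h) after compound addition. Reagent present from seeding; dosing at 5 h; incubation 37 C.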"}, "[2]": {"assay": "A CellTox Green Cytotoxicity Assay to monitor cytotoxicity in HEK293 cells - 16 hour (AID 1224888); also: nearly all actives have a fitted effect of over 35% in size", "procedure,_shortened": "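Homogeneous no-lysis format: HEK293 cell suspension mixed with CellTox Green reagent, seeded, incubated 5 h at 37 C/5% CO2, then dosed by pintool with compound in DMSO.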"}, "[3]": {"assay": "qHTS assay to identify small molecule antagonists of the estrogen receptor alpha (ER-alpha) signaling pathway using the BG1 cell line in the presence of 0.1 nM 17-beta-estradiol - cell viability counter screen (AID 1259241); also: nearly all actives have a fitted effect of over 40% in size", "procedure,_shortened": "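Live-cell protease activity (CellTiter-Fluor fluorescence, 30 min) was read in the same wells after VM7Luc4E2 cells had been exposed to compounds with 0.1 nM 17beta-estradiol for 22 hr at 37C.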"}, "[4]": {"assay": "A CellTox Green Cytotoxicity Assay to monitor cytotoxicity in HepG2 cells - 8 hour (AID 1224890); also: nearly all actives have a fitted effect of over 45% in size", "procedure,_shortened": "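Fluorescent DNA-binding dye, 600 HepG2 cells/well, 5 h preincubation then compound in DMSO; same plates read at 0–40 h, 37 C.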"}, "[5]": {"assay": "qHTS RealTime-Glo MT Cell Viability Assay in HepG2 cells - 0 hour (AID 1224889); also: nearly all actives have a fitted effect of over 50% in size", "procedure,_shortened": "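HepG2 suspension premixed with RealTime-Glo reagents is plated at 600 cells per well and left 5 h at 37 C/5% CO2. Compounds in DMSO then go in, and bioluminescence reflecting viable cell number is recorded over 40 h.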"}}, "note": "“And” between values parts separate entries of the source, which are not always exact repeats. Equal entries are not always repeated. Inconclusive results, whose numbers are uncertain, are shown with a selection of clear calls. Where the call is inconclusive, the potency comes from a doubtful curve fit. The source made the active and inactive calls. Calls follow the shape of the dose curve; as a rule, active = well fitted curve in the direction sought with a large enough effect in the repeat runs; inconclusive = weak or mixed curves; inactive = no such curve, though single readings can be large; an effect the other way counts as inactive or inconclusive. Potency is read from the fitted curve at half-maximal effect; tags tell the direction and shape of the fitted curve."}
{"smiles": "c1ccc2occc2c1", "values": [{"measurement": "Potency", "setting": "[1]", "result": "inconclusive: 0.49 µM [cytotoxic, single point]"}, {"measurement": "Potency", "setting": "[2]", "result": "inconclusive: 11 µM [activator, full curve, poor fit]"}, {"measurement": "Potency", "setting": "[3]", "result": "inactive"}]}
{"smiles": "C[n+]1cc2c3c(ccc2c2ccc4cc5c(cc4c21)OCO5)OCO3", "values": [{"measurement": "Potency", "setting": "[3]", "result": "active: 13 µM"}]}
{"smiles": "CC1=NN(c2ccccc2)C(=O)C1", "values": [{"measurement": "Potency", "setting": "[2]", "result": "inactive"}, {"measurement": "Potency", "setting": "[4]", "result": "inactive"}]}
{"smiles": "O=C(Nc1ccc([N+](=O)[O-])cc1Cl)c1cc(Cl)ccc1O", "values": [{"measurement": "Potency", "setting": "[3]", "result": "inconclusive: 1.72 µM [cytotoxic, full curve] and inconclusive: 1.03 µM [cytotoxic, full curve]"}]}
{"smiles": "Cc1oc(-c2ccccc2)nc1CCOc1ccc(C[C@H](Nc2ccccc2C(=O)c2ccccc2)C(=O)O)cc1", "values": [{"measurement": "Potency", "setting": "[1]", "result": "inactive"}, {"measurement": "Potency", "setting": "[3]", "result": "inconclusive: 61.1 µM [cytotoxic, partial curve]"}]}
{"smiles": "N#Cc1nc(Cl)c(Cl)c(Cl)c1Cl", "values": [{"measurement": "Potency", "setting": "[1]", "result": "inconclusive: 3.09 µM [cytotoxic, full curve]"}, {"measurement": "Potency", "setting": "[2]", "result": "inconclusive: 61.6 µM [activator, single point]"}, {"measurement": "Potency", "setting": "[3]", "result": "inconclusive: 68.6 µM [cytotoxic]"}]}
{"smiles": "SC1CCCCC1", "values": [{"measurement": "Potency", "setting": "[2]", "result": "inactive"}]}
{"smiles": "NC1(c2ccc(-c3nc4ccn5c(=O)[nH]nc5c4cc3-c3ccccc3)cc2)CCC1", "values": [{"measurement": "Potency", "setting": "[2]", "result": "inconclusive: 26.8 µM [activator, single point]"}, {"measurement": "Potency", "setting": "[3]", "result": "inconclusive: 1.68 µM [cytotoxic, full curve]"}]}
{"smiles": "CCCCc1oc2ccccc2c1C(=O)c1cc(I)c(OCCN(CC)CC)c(I)c1", "values": [{"measurement": "Potency", "setting": "[2]", "result": "inconclusive: 44 µM [activator, single point] and inconclusive: 26.8 µM [activator, single point]"}, {"measurement": "Potency", "setting": "[3]", "result": "inconclusive: 54.9 µM [cytotoxic, partial curve, poor fit]"}]}
{"smiles": "CN1CCC[C@@H]1CCO[C@](C)(c1ccccc1)c1ccc(Cl)cc1", "values": [{"measurement": "Potency", "setting": "[2]", "result": "active: 23.9 µM"}, {"measurement": "Potency", "setting": "[5]", "result": "inconclusive: 21.3 µM [rising, partial curve]"}, {"measurement": "Potency", "setting": "[4]", "result": "inconclusive: 21.3 µM [activator, partial curve, poor fit]"}, {"measurement": "Potency", "setting": "[3]", "result": "inconclusive: 11.9 µM [cytotoxic, single point]"}]}
{"smiles": "CCCCC(CC)COC(=O)c1ccc(N(C)C)cc1", "note": "(configuration not stated)", "values": [{"measurement": "Potency", "setting": "[3]", "result": "inactive"}]}
{"smiles": "NC(=O)n1c(O)c(C(=O)c2cccs2)c2cc(Cl)ccc21", "values": [{"measurement": "Potency", "setting": "[5]", "result": "inconclusive: 26.8 µM [cytotoxic, partial curve, poor fit]"}, {"measurement": "Potency", "setting": "[3]", "result": "active: 16.8 µM"}]}
{"smiles": "CCN(CC)CCOC(=O)c1ccc(N)cc1", "values": [{"measurement": "Potency", "setting": "[3]", "result": "inactive"}]}
{"smiles": "CCOC(=O)O[C@H](C)OC(=O)c1ccc2c(c1)cc(C(=O)NC1CCN(C(C)C)CC1)n2Cc1cc(-c2ccc(Cl)s2)on1", "values": [{"measurement": "Potency", "setting": "[1]", "result": "active: 11.5 µM"}, {"measurement": "Potency", "setting": "[4]", "result": "active: 18.2 µM"}, {"measurement": "Potency", "setting": "[3]", "result": "active: 64.1 µM"}]}
{"smiles": "O=C1C=CC(=O)N1c1ccccc1", "values": [{"measurement": "Potency", "setting": "[1]", "result": "active: 43.6 µM"}, {"measurement": "Potency", "setting": "[2]", "result": "active: 13.8 µM"}, {"measurement": "Potency", "setting": "[3]", "result": "active: 61.1 µM"}]}
{"smiles": "OCC(CO)(CBr)CBr", "values": [{"measurement": "Potency", "setting": "[2]", "result": "inconclusive: 61.6 µM [activator, partial curve, poor fit]"}]}
{"smiles": "Nc1ccc2c(c1)C(=O)c1ccccc1C2=O", "values": [{"measurement": "Potency", "setting": "[5]", "result": "inconclusive: 48.1 µM [cytotoxic, partial curve]"}]}
{"smiles": "O=C(O)c1cccnc1", "values": [{"measurement": "Potency", "setting": "[2]", "result": "inactive"}]}
{"smiles": "O=C(OCC1CCC2OC2C1)C1CCC2OC2C1", "note": "(configuration not stated)", "values": [{"measurement": "Potency", "setting": "[3]", "result": "inactive"}]}
{"smiles": "O=C1CCCCCCCCCCCCCC1", "values": [{"measurement": "Potency", "setting": "[2]", "result": "active: 43.6 µM"}]}
{"smiles": "O=c1ccc2ccccc2o1", "values": [{"measurement": "Potency", "setting": "[1]", "result": "inactive"}, {"measurement": "Potency", "setting": "[3]", "result": "inactive"}]}
{"smiles": "Oc1ccc(O)cc1", "values": [{"measurement": "Potency", "setting": "[3]", "result": "inconclusive: 17.1 µM [cytotoxic, partial curve, poor fit]"}]}
{"smiles": "C=C(C)C(=O)OCCC[Si](OC)(OC)OC", "values": [{"measurement": "Potency", "setting": "[2]", "result": "inconclusive: 61 µM [activator, single point]"}]}
{"smiles": "CCC(C)(C)c1ccc(CC(C)CN2C[C@@H](C)O[C@@H](C)C2)cc1", "note": "(some centres not stated)", "values": [{"measurement": "Potency", "setting": "[2]", "result": "active: 23.9 µM"}, {"measurement": "Potency", "setting": "[4]", "result": "inconclusive: 19 µM [activator, partial curve]"}]}
{"smiles": "O=C(O)c1ccc2c(c1)C(=O)OC2=O", "values": [{"measurement": "Potency", "setting": "[2]", "result": "inconclusive: 19.5 µM [activator, single point]"}]}
{"smiles": "O=c1[nH]sc2ccccc12", "values": [{"measurement": "Potency", "setting": "[2]", "result": "inconclusive: 54.9 µM [activator, single point]"}, {"measurement": "Potency", "setting": "[4]", "result": "active: 49 µM"}, {"measurement": "Potency", "setting": "[3]", "result": "active: 61.1 µM"}]}
{"smiles": "COc1cc([C@@H]2c3cc4c(cc3[C@@H](O[C@@H]3O[C@@H]5CO[C@@H](C)O[C@H]5[C@H](O)[C@H]3O)[C@H]3COC(=O)[C@H]23)OCO4)cc(OC)c1O", "values": [{"measurement": "Potency", "setting": "[3]", "result": "inactive"}]}
